Results on one molecule are retold here after US20120263734A1 (THERACLONE SCIENCES, published 2012).

Where only a bound is given, the exact number is not on record here.

The experiment addresses GPCMV gB (glycoprotein B of Guinea Pig CMV strain V545/82) (guinea pig CMV (GPCMV)). As to the kind of experiment: cell-based or functional assay.

B1: 2M16 human anti-CMV antibody (antibody)
heavy: QVQLVDSGGGMVQPGRSLRLSCSASGLTFSNYGMHWVRQAPGKGLEWVAVISSDGSNEHYADSVKGRFTISRDNFNNMLYLQMNSLRAEDTAVYYSARDGRCPDVNCYSGLIDYWGQGTLVTVSSASTKGPSVFPLAPSSKSTSGGTAALGCLVKDYFPEPVTVSWNSGALTSGVHTFPAVLQSSGLYSLSSVVTVPSSSLGTQTYICNVNHKPSNTKVDKRV[human IgG1 Fc cut from this listing]
light: EIVLTQSPATLSLSPGERATLSCRASQSVGRYLAWYQQKGGQAPRLLIYDASNRATGIPARFSGSGSGTDFTLTIDSLEPEDFAVYYCQQRSNWPPLTFGGGSKVEIKRTVAAPSVFIFPPSDEQLKSGTASVVCLLNNFYPREAKVQWKVDNALQSGNSQESVTEQDSKDSTYSLSSTLTLSKADYEKHKVYACEVTHQGLSSPVTKSFNRGEC
Turning to B1, the “neutralization of GPCMV V545/82 entry into JH4 cells (highest concentration tested, no effect)” value was > 300 µg/mL.
